This data set deals with the molecule itself. Description: EGS chemical cross-linking on KU-812 cells, SDS-PAGE and Western blot (about 100 kDa monomer, about 200 kDa dimer).

B1: 161P2F10B variant 1 (human 161P2F10B), on the cell surface (enzyme)
chain: not shown
notes: Cell surface pyrophosphatase/phosphodiesterase; also called 161P2F10B v.1; CD203c
B1: the binding result is recorded as “binds”.

(Values after US20090022663A1 (published 2009).)
